# Source: PubChem BioAssay AID686978 (National Center for Advancing Translational Sciences (NCATS), 2013)
# The campaign covered roughly 420,000 compounds. About 64,000 (15%) were called active. Inconclusive means that the source gave no clear call. Such entries were picked first, then a sample of the others. The call rests on the fitted dose curve; in most records, active means well fitted inhibition curve with a large enough effect; inconclusive means small, poorly fitted or top-dose-only effect; inactive means flat fitted curve, though single readings scatter. Potencies of inconclusive entries are left out as doubtful fits.
# Test: qHTS for Inhibitors of human tyrosyl-DNA phosphodiesterase 1 (TDP1): qHTS in cells in absence of CPT; further: nearly all actives have a fitted effect of over 55% in size
# Details: DT40 Tdp1-/- hTDP1 cells, no CPT, ATP luminescence, 48 h; activity change, negative = growth inhibition: at 46.2 µM (top of the series)
# Outline: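 DT40 Tdp1-/-;hTDP1 cells, no CPT (DMSO vehicle only), 400 cells/well; compounds pin-transferred; ≥48 hr, 37 °C; CellTiter-Glo 30 min RT dark, luminescence read.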
# On the % scale 0 is the no-effect control and ±100 the full control effect; potency means the concentration at half of the fitted maximal effect; tags describe the fitted curve by direction and shape.
Compound,Potency,"activity change, negative = growth inhibition"
C[C@@H]1C(c2cccc(Cl)c2)=NN(c2ccc(Br)cc2)[C@H]1C(=O)N1CCOC1=O,"inconclusive [inhibitor, single point]",–
Cc1ccc2c(=O)n3c(nc2c1)C(Cc1ccc(O)cc1)NC(=O)c1cc2ccccc2cc1-3 (stereo not given),active: 18.4 µM,–
COc1ccc(OC)c(C2N(c3ccccn3)C(=O)C3CCCN32)c1 (stereo not given),inactive,–
CCCCC(=O)N(Cc1nc2sc(C)c(C)c2c(=O)[nH]1)C1CCCC1,"inconclusive [inhibitor, single point]",–
Cc1ccc(NC(=O)C2CC(=O)NC(N3CCc4ccccc43)=N2)cc1 (stereo not given),"inconclusive [inhibitor, partial curve]",–
COc1ccc2nc3ccccc3nc2c1NC(=O)c1ccc(Br)cc1,"inconclusive [inhibitor, full curve, poor fit]",–
NC(=O)C1CCN(C(=O)NC2CC(=O)N(c3ccc4c(c3)OCCO4)C2)CC1 (stereo not given),inactive,–
Cc1cccc(N2CC(C)Cn3c2nc2c3c(=O)[nH]c(=O)n2C)c1 (stereo not given),inactive,–
CCOC(=O)c1cnc2c(Cl)c(Cl)ccc2c1NCCN1CCOCC1,"inconclusive [inhibitor, partial curve]",–
CCc1ccc(S(=O)(=O)N2CCCC(N3CCN(c4ccc(OC)cc4)CC3)C2)cc1 (stereo not given),"inconclusive [inhibitor, single point]",–
CC1CCC(NC(=O)CCNS(=O)(=O)c2ccc3c(c2)CCC(=O)N3)CC1 (stereo not given),inactive,–
CC(C)(C)C(=O)Nc1ccc(N2CCN(S(C)(=O)=O)CC2)cc1,inactive,–
CCCCn1nnnc1C1(C)CCC(=O)N1CCCN1CCOCC1 (stereo not given),inactive,–
COc1cc(NS(=O)(=O)c2c(C)oc3c(F)c(F)c(F)c(F)c23)cc(OC)c1OC,active: 18.4 µM,–
CCOc1ccc(-c2noc(CCC(=O)NC3CCCCC3)n2)cc1OC,inactive,–
Cc1ccc(NC(=O)c2snc3ccc(Cl)cc23)cc1C,"inconclusive [inhibitor, partial curve]",–
CCOC(=O)C1(CCOC)CCN(CC(C)Cc2ccc3c(c2)OCO3)CC1 (stereo not given),inactive,–
Cc1nc(COc2ccc(C(=O)NCc3ccccc3CN3CCCCC3)cc2)cs1,active: 23.1 µM,–
CCOc1ccc(C(=O)CCN2CCOCC2)cc1,active: 20.6 µM,–
O=C(/C=C/c1ccc(Br)cc1)NC(=O)c1ccccc1O,"inconclusive [inhibitor, single point]",–
CC1(CCc2ccccc2)NC(=O)N(CC(=O)N2CCCCCC2)C1=O (stereo not given),inactive,–
CCn1c(CCCOc2ccc(Cl)cc2Cl)nnc1SCC(=O)Nc1cccc(F)c1,–,inconclusive: -31.1% [inhibitor]
Cc1c(C(=O)NCC2CCCO2)oc2ccc3c(c12)C(=O)CC(C)(C)O3 (stereo not given),"inconclusive [inhibitor, partial curve]",–
Cc1ccc(NC(=O)CCC(=O)N2CCN(S(=O)(=O)c3ccc(C)cc3)CC2)cc1,inactive,–
CCC1Cc2c(nc(N)c3c(N)nc(N4CCOCC4)c(C#N)c23)O1 (stereo not given),"inconclusive [inhibitor, single point]",–

Compound,Potency,"activity change, negative = growth inhibition"
CCOC(=O)N1CCC(NC(=O)c2cnn3c2NC(c2ccco2)CC3C(F)(F)F)CC1 (stereo not given),"inconclusive [inhibitor, single point]",–
CC(Sc1nccn1C)C(=O)c1c(N)n(C)c(=O)n(C)c1=O (stereo not given),inactive,–
Cc1ccc(NC(=O)c2c(C)oc3ccc(O)c(CN4CCCC4)c23)c(C)c1,"inconclusive [inhibitor, single point]",–
C=CCNc1ncnc2c1cnn2-c1cccc(C)c1,–,inconclusive: -30.6% [inhibitor]
Cc1ccc(Cn2c(C(C)Nc3nc(C)cs3)nc3cc(Cl)c(Cl)cc32)cc1 (stereo not given),"inconclusive [inhibitor, single point]",–
COc1ccc2c(=O)c(-c3ccc(OC)c(OC)c3)coc2c1,inactive,–
NC(=O)c1cc(C(=O)Cc2ccccc2)c[nH]1,inactive,–
Cc1cc(C)n(CC(O)CN(c2cccc([N+](=O)[O-])c2)S(=O)(=O)c2ccccc2)n1 (stereo not given),"inconclusive [inhibitor, single point]",–
CCCS(=O)(=O)N1CCC(C(=O)NCCCN(CC)c2cccc(C)c2)CC1,"inconclusive [inhibitor, single point]",–
O=C(N/N=C/c1ccc([N+](=O)[O-])o1)c1cn(-c2ccccc2)nc1-c1ccc(Cl)cc1,"inconclusive [inhibitor, single point]",–
CCOC(=O)N1CCN(C(=O)COc2cccc3c2CCN(Cc2cccc(C)c2)C3=O)CC1,active: 14.6 µM,–
O=C(NCC(c1ccc2c(c1)OCO2)N1CCN(c2ccc(F)cc2)CC1)c1cccc([N+](=O)[O-])c1 (stereo not given),active: 6.51 µM,–
O=C(COc1ccccc1F)N1c2ccccc2CCc2ccccc21,"inconclusive [inhibitor, single point]",–
CCC(C)NCCOCCOc1ccc(C)cc1Br (stereo not given),"inconclusive [inhibitor, single point]",–
CCOC(=O)C1=C(C)OC(N)=C(C#N)C1c1cncc(-c2ccc(F)cc2)c1 (stereo not given),"inconclusive [inhibitor, partial curve]",–
CCOC(=O)C[N+](C)(C)CCOC1CC2CCC1(C)C2(C)C (stereo not given),active: 7.31 µM,–
NC(=O)Nc1ccc(/C=C2\C=Cc3ccccc32)cc1,"inconclusive [inhibitor, single point]",–
CCOc1cc(CNc2ccc3[nH]c(=O)[nH]c3c2)ccc1OCC(=O)NC(C)(C)C,–,inconclusive: -30.3% [inhibitor]
CCOc1cc2[nH]c(=S)n(CCc3ccc(OC)c(OC)c3)c(=O)c2cc1OCC,"inconclusive [inhibitor, partial curve, poor fit]",–
Cc1cc(Br)cc2c(C(=O)Nc3c(C)n(C)n(-c4ccccc4)c3=O)cc(-c3cccs3)nc12,active: 16.4 µM,–
CC(=O)Nc1ccc(S(=O)(=O)N(C)CC(=O)OCC(=O)NCc2ccco2)cc1,inactive,–
CCOc1ccc(NC(=O)CN2CCN(CC(=O)Nc3ccc(F)c(F)c3)CC2)cc1,"inconclusive [inhibitor, single point]",–
OCC1(Cc2ccccc2)CCN(Cc2cnn(-c3ccccc3F)c2)CC1,inactive,–
CCn1c(SCC(=O)N2CCCCC2)nc2c([nH]c3ccccc32)c1=O,inactive,–
COc1ccc(Nc2ncnc3c2c(-c2ccccc2)cn3-c2ccc(C)c(Cl)c2)cc1OC,inactive,–

Compound,Potency,"activity change, negative = growth inhibition"
O=C(CN(Cc1ccco1)C(=O)c1nsc(Cl)c1Cl)NC1CCCCC1,inactive,–
COc1ccc(NC(=O)CCN2C(=O)NC3(CCCC3)C2=O)cc1Cl,inactive,–
Cc1ccc2c(n1)sc1c(N)ncnc12,"inconclusive [inhibitor, partial curve]",–
CC(Nc1ccc(F)cc1F)C(=O)NC(=O)NC1CCCCC1 (stereo not given),inactive,–
O=C(NCCc1ccc(Cl)cc1)c1ccc(Cn2c(=O)[nH]c3ccccc3c2=O)cc1,active: 3.66 µM,–
CCn1cc(C(=O)O)c(=O)c2cnc(N3CCN(C(=S)Nc4ccccc4)CC3)nc21,"inconclusive [inhibitor, single point]",–
COc1ccccc1C(=O)C1CCCN(C(=O)C2=CC(=O)CC(C)(C)O2)C1 (stereo not given),inactive,–
O=C1CCC(=O)N1CC(=O)N1c2ccccc2Sc2ccccc21,inactive,–
CCOc1ccccc1NC(=O)Cc1csc(COc2cccc(C)c2)n1,"inconclusive [inhibitor, single point]",–
CSc1nc2nc(-c3ccccc3)cc(C(F)(F)F)n2n1,"inconclusive [inhibitor, partial curve]",–
CS(=O)(=O)c1nc(S(=O)(=O)c2ccc(Cl)cc2)c(N2CCOCC2)s1,"inconclusive [inhibitor, single point]",–
Cc1ccccc1C1CC(c2cccs2)=NN1S(C)(=O)=O (stereo not given),inactive,–
CCC1(CCC(C)C)SC(N)=NC1=O (stereo not given),inactive,–
CC1=NOC(=O)/C1=C/c1ccc(O)cc1,"inconclusive [inhibitor, single point]",–
Cc1cccc(NC(=O)CSC2=Nc3ccccc3C3=NC(CCC(=O)NCc4ccc(F)cc4)C(=O)N23)c1 (stereo not given),"inconclusive [inhibitor, single point]",–
CC(C)=CCC(C)(C)C1OCCN1C(=O)Nc1ccccc1 (stereo not given),"inconclusive [inhibitor, single point]",–
CCOc1ccc(CN2C(=O)c3ccccc3Sc3ccc(C(=O)NCCc4ccccc4)cc32)cc1,"inconclusive [inhibitor, single point]",–
O=S(=O)(c1c(F)cccc1F)N1CCCC2CCCCC21 (stereo not given),active: 20.6 µM,–
CC(=O)N=Cc1c(C)c(C#N)c(=O)n(C)c1O,inactive,–
COc1ccc2[nH]cc(CCNC(=O)Nc3cccc(F)c3)c2c1,inactive,–
COc1cccc2sc(Nc3nc(-c4cc5ccccc5oc4=O)cs3)nc12,active: 4.61 µM,–
O=C(Nc1ccccc1)[C@@H]1CC=C[C@@H]2CCN(Cc3ccc(Cl)c(Cl)c3)C(=O)[C@@H]21,active: 18.4 µM,–
O=C(CCC1CCCCC1)Nc1ccc(C(=O)c2ccncc2)cc1,"inconclusive [inhibitor, single point]",–
O=C(NC(=S)Nc1ccccc1Br)c1cccnc1,"inconclusive [inhibitor, single point]",–
COc1cccc(C2C(C(=O)c3cc4ccccc4o3)=C(O)C(=O)N2c2cc(C)on2)c1OC (stereo not given),"inconclusive [inhibitor, single point]",–
